One molecule from PMC2185562 (The Journal of Cell Biology, 2000) can be followed below.

Experiment [1] deals with VSV G-tagged wild-type ezrin (UniProt P15311 1-586). Nature of the experiment: far-Western, overlay or dot blot.
Experiment [2] concerns the target VSV G-tagged T567A ezrin (UniProt P15311 1-586, T567A). Put plainly: far-Western, overlay or dot blot.

B1: Recombinant NH2-terminal fragment […] of ezrin, biotinylated (domain or fragment)
chain: not shown
As for B1, the binding result in experiment [1] and in experiment [2] was “binds” throughout.
